Source: the supplement of paper PMC3334620
In all, about 33,000 sequences were measured (“E-score (-0.5 to 0.5)”: median about -0.013, highest 2% from about 0.3 on). The list shows a part of the results.

target: T1, Msn1 (UniProt P22148); assay: PBM E-score (8-mer binding enrichment) (E-score (-0.5 to 0.5)); higher = stronger / more preferred TF binding; most listed sequences are background and not binding sites; conditions: protein concentration: 200 nM; construct: GST-full length
T1 sequence: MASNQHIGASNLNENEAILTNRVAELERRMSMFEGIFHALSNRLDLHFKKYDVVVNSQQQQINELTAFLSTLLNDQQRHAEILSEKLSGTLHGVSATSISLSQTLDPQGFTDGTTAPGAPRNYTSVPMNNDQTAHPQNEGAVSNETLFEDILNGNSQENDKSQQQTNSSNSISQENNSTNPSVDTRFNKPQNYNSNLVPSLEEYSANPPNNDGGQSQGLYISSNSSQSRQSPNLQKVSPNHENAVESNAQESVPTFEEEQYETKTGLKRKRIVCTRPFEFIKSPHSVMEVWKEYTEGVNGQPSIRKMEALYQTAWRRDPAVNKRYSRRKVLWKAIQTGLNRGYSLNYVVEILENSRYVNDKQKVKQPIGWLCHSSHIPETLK
Outline: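 For each ungapped eight-base word taken together with its reverse complement, the Universal PBM Analysis Suite assigned an E-score. Binding data came from GST-tagged yeast transcription factors, applied at about 100-200 nM, on universal all-10-mer Agilent arrays made double-stranded by primer extension. Fluorescent anti-GST marked bound protein, and scans were normalised with masliner.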

Sequence | PBM E-score
AAGGTCCC | -0.0864
ACCAAGGC | -0.117
CGCAAACG | 0.11
CAAACCGG | -0.0828
CGGCGCTA | -0.124
GCAGATGA | -0.132
CCTATGTA | -0.0586
GTATAGAC | 0.156
AGCAGGTA | -0.0987
CGATGAGA | 0.095
AGGGTAAC | -0.177
CCTGCAAC | -0.013
ATACAGGC | -0.118
ATTAAATA | 0.181
AGATGTAC | 0.0525
ATTATCAG | -0.106
ATTCTGGG | 0.0359
CCCGCGGA | 0.0169
AAACCAAG | 0.15
GACAGCTA | 0.00802
ATGAGTCG | -0.04
GCTGAAAC | 0.0628
CATACTCC | 0.0999
AGTTGCTG | -0.00412
CGCATAAG | 0.0399

Sequence | PBM E-score
AAGATACG | 0.0299
AATGCTGG | -0.16
AGACTCGC | -0.0765
ACGGGGCA | -0.134
AATTACTA | 0.0853
CATATTAC | 0.141
CTCCTCCC | -0.172
AATTGCTA | 0.00987
ACCCCCGT | -0.336
CCTTACGC | 0.145
CCCATCGA | -0.171
AAGTAGGA | 0.0343
CGATACCG | -0.0866
ACAGGTTC | -0.138
ACTTGCTA | -0.107
GTAAGTGA | 0.0352
CGATATGA | -0.00978
CATTAAGA | 0.164
TATGCAGA | 0.0372
GGGCTCTA | -0.0347
ACATAAAG | 0.224
AGCAGCCC | -0.154
AAAACAGG | 0.0274
CAGTCAAC | -0.107
ATGCACAG | -0.18

Sequence | PBM E-score
AGACAACC | 0.208
AATGTCAA | 0.3
CAGTTTTC | 0.0984
AGCCTGAG | -0.236
AGGACGTA | 0.295
GGTCGGAA | -0.00455
GATCCGGA | 0.0679
ATACGGCG | 0.00302
AATTTCGC | -0.0241
ATAGCATC | -0.0253
ATATTTAG | 0.209
CGGGTATC | -0.129
GCGGTCGA | 0.139
TGGGGCAA | -0.162
AGGAATAC | -0.0954
CATAAAGC | -0.057
GGGTTATA | -0.0618
ATACACAG | 0.144
CATTCCAA | 0.0263
CGCCAGAA | -0.163
CTAGAAGA | -0.00652
AAGCTCCA | -0.219
ACCGGCCC | -0.222
TTAGGAAA | 0.0862
CCAGGCGA | -0.168

Sequence | PBM E-score
ATCAGCTG | 0.0576
GATCGTTA | -0.231
CACCAGAA | -0.138
TCCTAAAA | 0.12
GATGACGA | 0.0729
AGGACACA | 0.472
CTTCCGAA | 0.0125
CGGCCACC | -0.0809
GCATCGAC | 0.00871
TAACCCCA | -0.259
CCAATGAC | -0.00959
GCCATGAA | -0.00602
CATACGCG | 0.106
CCCTTGCA | -0.291
GGAGACGA | 0.0995
GTCAGACA | 0.323
ATGCGGCC | 0.0132
ACACGGCT | 0.0384
ATACCAAC | 0.156
AATTGCTG | 0.136
AGTACTGC | -0.113
ATGTGCTG | 0.108
GTCTGTGA | 0.0908
CAAGAAAG | 0.0067
CCACCCCC | -0.325

Sequence | PBM E-score
CTTGTATA | 0.0945
CCAATCAC | -0.145
TCTAACAA | 0.0472
TCCCGGCA | 0.0389
AGGAACCA | 0.0456
ACTGAATC | -0.0868
GAGTCGTA | -0.133
GGCCCGTA | -0.179
AATTCTAT | 0.0583
CCTTTGCG | -0.0612
GTTGTGTA | 0.107
AGGAATCA | 0.0404
AGCCCTGA | -0.186
AATTGTAT | 0.155
CACTTCCC | -0.0731
ATTTTGGA | 0.26
TGTCAAAA | 0.251
ACAGTGTC | -0.0415
CTGAAATC | -0.0568
CTCTAGGA | -0.0748
AAAAAAGG | 0.222
CTTCACCA | -0.181
AGGAAATA | 0.137
ACACTCAG | -0.143
CCGGCCGC | -0.228

Sequence | PBM E-score
CCGTACGA | 0.0796
AGTCATGC | -0.251
CCCACGTA | -0.0672
CAGGACAA | 0.481
GAAAATCA | 0.189
CCCGCAAG | -0.118
ACACCGCA | -0.0976
AATTTTTA | 0.158
AACACCCG | 0.0208
AATTAGGA | 0.134
AAGAAGGA | -0.172
TGAGTGCA | -0.206
GAGTCAAC | -0.158
AAGGATAT | 0.125
ATTAAGGG | -0.199
GACACCGC | -0.0681
CGTTTTTC | 0.0566
CCGCAGAC | -0.07
ACAGAGGC | -0.168
ATAAGTAC | 0.229
CCAAGGCG | -0.0145
AGATTGAG | -0.00514
GGAAGTGA | -0.0753
CAATCACC | -0.0962
AAGATGAC | -0.00946

Sequence | PBM E-score
CGCGCGCC | 0.247
CAAAACGC | 0.153
ACTAAATC | 0.0606
CACACGGC | 0.0388
AAAGATGA | 0.215
CAGTATAG | 0.137
TCATCCAA | 0.00053
AATGAACT | 0.0106
GCAATTGA | -0.125
CTGTTAGC | -0.165
GCGGGAGA | -0.291
CGCTTTAC | -0.0405
AACGGGGA | 0.111
GCCAAGGA | -0.0314
CGTGTTTA | 0.073
CGCGGACA | 0.329
GCCTGCGA | -0.174
CCTGAGGC | -0.336
CCAGCCCA | -0.218
CAAACGAC | 0.147
AGGGCGAA | -0.146
AAAGCGTG | 0.0783
